# Experimental data reported in the supplement of paper PMC10126150.
# Values marked as one replicate rest on one cluster of the flow cell; about a third of the high ones do not repeat.
# Test system: ATP
# Test: switch fluorescence ratio, 500 uM ATP over buffer (Cy3 cluster intensity, sum of 5 cycles each) (fold (ratio)); higher = stronger signal-on switching upon ATP binding; sequences stand for … in TCGTCGGCAGCGTCAGATGTGTATAAGAGACAGTTTTTTTTTTTTTTTTTTTTTTTTT…TC
# Conditions: aptamer strand: ATP DNA aptamer (quencher-CACCTGGGGGAGTATTGCGGAGGAAGG + anchor), 100 nM annealed; ATP concentration: 500 uM; one replicate
# In short: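 Values give the fluorescence ratio for each switch-domain sequence, averaged from per-cluster ratios of summed target-cycle to summed buffer-cycle Cy3 intensity. The Cy3-labelled switching-strand clusters sat on a modified Illumina MiSeq flow-cell, were annealed to 100 nM quencher-labelled ATP aptamer, and were imaged in selection buffer, then after 15 min with 500 uM ATP at 22 °C. Five cycles ran with NaOH stripping and re-annealing between them, and clusters outside 100-1000 RFU were excluded.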
# 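Note: ATP exposure 15 min at 22 °C before imaging.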
row,Sequence,switch fluorescence ratio
1,AAGAAAAAGT,0.966
2,CCTTGGAACT,1.05
3,AACAAGCTTG,0.984
4,TGGATTAGCA,1.06
5,GTTGCAGGGC,1.06
6,TTACTTGGAT,1.01
7,TTGGTGGTCG,0.957
8,ATAATTTGAG,1.02
9,GCAATCCTAT,1.06
10,ATTGGTATTT,0.951
11,TACTAGCGCT,0.988
12,TTACGCCCCT,1.24
13,TGAGACGTTA,0.977
14,ATAGCGTAAC,1.1
15,TGGTAGTTCC,1.04
16,AACGCGGGAT,0.973
17,GCTAGTAACC,1.02
18,GTAGTGCACG,0.986
19,CTCTACGGTG,1.08
20,TGAGGCATGC,1.27
21,GCAGGAGAGG,1.14
22,AAACTGATGT,0.986
23,GAAATGGGGC,0.936
24,TAAATTTCAG,0.938
25,AGACCTCATC,1.06

row,Sequence,switch fluorescence ratio
1,AAGTGATGCG,0.972
2,GGCCATAGAC,1.05
3,GTGGGTTATA,0.949
4,GGGTAGTACT,0.988
5,CCCCTCGTTA,1.06
6,GGAGAGAGGA,1.06
7,TTAGAGCCGA,0.977
8,GACTAACGAT,1.23
9,CGGGTCACTT,1.09
10,ATACTTGATG,0.996
11,AGCAGTTG,1.03
12,CCAAGCGCAT,4.67
13,GGACCGGATG,0.966
14,TTCAAGTGAG,1.01
15,CAACTGAGGT,0.965
16,ATCTGAAAAA,0.978
17,ATATCTCTTT,0.995
18,CACGACTAAA,1.08
19,AAAAGCAAGG,0.986
20,CAAACCGACT,1.53
21,TGAATATTTA,0.977
22,TTGTAGAAG,0.99
23,TTGCTAGTT,0.999
24,CGCTATCAC,4.99
25,AATGGTTCGT,1

row,Sequence,switch fluorescence ratio
1,GACTATGCTC,1.04
2,GGAAACGACT,0.972
3,CAAAAGACGA,1.48
4,CGATGGACCC,1.05
5,GTTGGTGGTA,0.983
6,CGAGAATTAG,1
7,GGAAATCATA,1.05
8,GTTTTTCGTT,1.14
9,TAAGAATCCC,1.03
10,GTTGTTCATA,1.02
11,GAGGTAATGC,1.93
12,GACGAAAACA,0.986
13,TAGCGCCCTC,1.12
14,CTAATTCACA,1.11
15,GTATGTAGTT,0.997
16,CGCGCATGGA,1.06
17,CCCATGGCAG,1.02
18,GCGTGTAGTT,0.999
19,GCCAATGGCG,1.05
20,TAACGAGGTT,1.02
21,CTTAGCGGAA,1.01
22,GGGGTCATGG,0.975
23,ATGCGACTTT,1.03
24,TAACCGGTGG,0.966
25,GCAAATTTGG,1

row,Sequence,switch fluorescence ratio
1,TACTCTTCGA,1
2,CGGTTGGGA,1.03
3,TCCAATAGGA,0.978
4,TCCACCGGTG,1.13
5,TGATACCAGG,1.44
6,TAAGGGCGCT,0.983
7,GGTAAGATGC,1.07
8,AGCTTAGTGC,1.08
9,TATTTCAGGT,0.965
10,CATGAATCCC,1.09
11,TGGGCAGCTC,1.01
12,AGCTAGGTTA,0.98
13,ATGATGCTGA,1.02
14,TCAAACTTTG,0.931
15,CCGGGAATAA,1.37
16,TAACAGTTCC,1.28
17,CGTTACTGCT,1.01
18,AGAACTCAGA,1.03
19,TGATGCTAAG,1.01
20,CGGCCGTTCA,1.02
21,TGATCTCAGG,1.02
22,TTATATAAAC,1.04
23,TAGTCCGGG,1
24,GGGATGACAC,0.987
25,CAGTTTCACG,1.01
